Usually CC50 stands for the concentration at which the toxic effect on the cells reaches its halfway point. Read a high CC50 as lower toxicity to the cells.

Data on 62 molecules can be found in PubChem BioAssay AID1347044 (National Center for Advancing Translational Sciences (NCATS), 2019).

Each structure is given as a SMILES string. The list shows a part of the results. Shown are side measurements of this screen, not its main read-out; they come without a call. Compounds called inactive in the main read-out are mostly missing here. The note in brackets gives the kind of curve behind each potency; many fits are weak.
Tags tell the direction and shape of the fitted curve.

This experiment can be described thus: Natriuretic polypeptide receptor (hNpr1) antagonism - Confirmation. Also: nearly all actives have a fitted effect of over 70% in size. Particulars: HEK293 hNpr1 cGMP GloSensor luminescence, ANP-stimulated; measured here: HEK-hNpr1 cytotoxicity, CellTiter-Glo. A digest of the protocol: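 HEK293 cells expressing hNpr1 and the pGS-40F GloSensor cGMP sensor, loaded with 2% GloSensor reagent for 2 h, then treated 30 min with compound at room temperature. Luciferase luminescence read before and 20 min after 0.1 nM hNppA stimulation.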
Background: In ATP-based viability assays light output follows the ATP content of the culture.
Regarding `O=C(Nc1ccc(F)cc1)c1cc2n(n1)CC(c1ccc3c(c1)OCO3)OC2` (configuration not stated), the CC50 is 30.6 µM [falling, partial curve].
The same measure for `COc1ccc(C(=O)N2CCC3(C2)C(=O)N(Cc2ccccc2)c2ccccc23)cc1` (configuration not stated): 19.3 µM [falling, partial curve].
The same measure for `O=C(Nc1ccc(F)cc1)C1CCN(c2cc(C(F)(F)F)ncn2)CC1`: 19.3 µM [falling, partial curve]; for `O=C(C1CC1)N1CC(Oc2ccc(-c3noc(C4CCOCC4)n3)cc2)C1`: 15.3 µM [falling, partial curve].
The same measure for `CCc1noc(CC2CCOC3(CCN(S(=O)(=O)c4cccc(OC)c4)CC3)C2)n1` (configuration not stated): 24.3 µM [falling, partial curve]; for `COc1ccc(CC(=O)NC2CCCN(c3cc(-c4ccc(Cl)cc4)[nH]n3)C2)cc1OC` (configuration not stated): 27.3 µM [falling, partial curve].
Regarding `O=C1CC2(CCN(C(=O)c3ccc(Cl)cc3)CC2)Oc2ccccc2N1`, the CC50 was 19.3 µM [falling, partial curve].
In the case of `Cc1nn2c(c1-c1ccccc1-c1ccccc1)N(CC1CC1)CCC2`, the 50% cytotoxic concentration (CC50) was 39.6 µM [falling, single point].
The same measure for `COc1ccc(-c2noc(CC3CCN(C(=O)Cc4ccccc4OC)CC3)n2)cc1`: 21.7 µM [falling, partial curve]; for `COc1ccc(Cl)cc1-c1ccc2c(n1)CN(CCOc1ccccc1)C(=O)CO2`: 55.9 µM [falling, single point]; for `COc1nccc(N2CCC(CC(=O)NCc3ccccc3F)CC2)n1`: 34.3 µM [falling, single point].
The same measure for `COC(=O)c1cccc(NC(=O)CCNc2c(C)nc3cnccn23)c1`: 19.3 µM [falling, partial curve, poor fit]; for `O=S(=O)(c1ccc(Cl)cc1)N1CCOC[C@H](Oc2ccc(C(F)(F)F)cc2)C1`: 34.3 µM [falling, single point].
The same measure for `O=C(NC1CCCCC1)O[C@@H]1CO[C@H]2[C@@H]1OC[C@@H]2Nc1nccc(-c2cccs2)n1`: 7.03 µM [falling, full curve].
In the case of `CCN(Cc1noc(C2CCC2)n1)C(=O)C(C)Oc1ccc2ccccc2c1` (configuration not stated), the cytotoxic concentration (CC50) was 21.7 µM [falling, partial curve].
In the case of `N#Cc1cccc(CN[C@H]2CO[C@H]3[C@@H]2OC[C@H]3OC(=O)Nc2ccc(Oc3ccccc3)cc2)c1`, the CC50 was 21.7 µM [falling, partial curve].
Consider `CC(=O)Oc1ccccc1C(=O)Nc1ccc2c(c1)CN(CCc1ccc(F)cc1)C(=O)C(C)O2` (configuration not stated), for which the CC50 was 43.2 µM [falling, single point].
In the case of `O=c1[nH]c2ccccc2n1C1CCN(c2nccc(-c3cccnc3)n2)CC1`, the CC50 was 19.3 µM [falling, partial curve].
With `COCc1nc(-c2ccc(OC3CN(C(=O)NC(C)C)C3)cc2)no1`, the CC50 was 19.3 µM [falling, partial curve].
The same measure for `COc1cc(NC(=O)Cn2c(N3CCC(C)CC3)nc(C)cc2=O)cc(OC)c1`: 13.7 µM [falling, partial curve]; for `Cc1ccc(C(=O)N[C@H]2CO[C@H]3[C@@H]2OC[C@@H]3Nc2nccc(-c3ccc(-c4ccccc4)cc3)n2)cc1`: 17.2 µM [falling, partial curve]; for `CCOc1ccc(C(=O)N2CCC(Cc3nc(-c4cccc(OC)c4)no3)CC2)cc1`: 15.3 µM [falling, partial curve].
Consider `Cc1nc(-c2ccncc2)ncc1C(C)Nc1ncnc(C)c1C` (configuration not stated), for which the CC50 was 13.7 µM [falling, partial curve].
The same measure for `CCCCOc1ccc(C(=O)N2CCC(Cc3nc(-c4cnccn4)no3)CC2)cc1`: 24.3 µM [falling, single point]; for `CC(C)Cc1ccc(S(=O)(=O)N(C)CC2CCOCC2)cc1`: 15.3 µM [falling, partial curve]; for `c1ccc(-n2cc(CN3CCC(Oc4ccncc4)CC3)nn2)cc1`: 38.5 µM [falling, single point].
Take `CCOc1ccc(CC(=O)N2CCC(Cc3nc(-c4ccccc4)no3)CC2)cc1`: the CC50 was 15.3 µM [falling, partial curve].
Consider `Cc1ccccc1-c1cnc2[nH]cc(CC(=O)NCc3ccccc3)c2c1`, for which the CC50 was 25 µM [falling, partial curve].
The same measure for `O=C(Cc1c[nH]c2ncc(-c3ccccc3F)cc12)N1CCOCC1`: 31.4 µM [falling, partial curve].
In the case of `COc1ccc(-c2ccnc(N[C@H]3CO[C@H]4[C@@H]3OC[C@H]4OC(=O)Nc3cccc(C(C)=O)c3)n2)cc1`, the CC50 is 21.7 µM [falling, partial curve].
The same measure for `CC(C)c1ccc(CN2CCc3ncc(C(=O)NCc4ccccc4)n3CC2)cc1`: 35.3 µM [falling, partial curve]; for `O=C(NCC1CC1)c1nc2c(o1)CCN(Cc1cccc(F)c1F)CC2`: 22.2 µM [falling, partial curve].
The same measure for `O=C(CC1CCCCC1)N1CCC(c2noc(COc3ccc(F)cc3)n2)CC1`: 19.3 µM [falling, partial curve].
The same measure for `COc1cccc(-c2noc(CC3CCN(C(=O)c4ccc(F)c(F)c4)CC3)n2)c1`: 10.9 µM [falling, partial curve]; for `C=CCNC(=O)c1coc(COc2ccc3ccc(OC)cc3c2)n1`: 24.3 µM [falling, partial curve]; for `O=C(N[C@H]1CO[C@H]2[C@@H]1OC[C@@H]2Nc1nccc(-c2ccc(-c3ccccc3)cc2)n1)C1CCCCC1`: 30.6 µM [falling, single point].
As for `COc1ccc(Cl)cc1NC(=O)Cn1c(N2CCC(C)CC2)nc(C)cc1=O`, the CC50 is 19.3 µM [falling, partial curve].
With `N#Cc1ccc(CN2CCC3(CC2)CC(c2cccnc2)=NO3)cc1`, the CC50 was 31.4 µM [falling, partial curve].
The same measure for `COc1ccc(C(=O)Nc2ccc3c(c2)CN(Cc2ccc(F)cc2)C(=O)C(C)O3)c(OC)c1` (configuration not stated): 43.2 µM [falling, single point].
Regarding `CC(=O)Nc1ccc(C(=O)N2CCC3(CC2)N=C(c2ccc(Br)cc2)NO3)cc1`, the half-maximal cytotoxic concentration (CC50) was 10.9 µM [falling, partial curve].
For the molecule `COc1nccc(N2CCC(CC(=O)N(C)CCCc3c(C)nn(C)c3C)CC2)n1`, the CC50 is 19.3 µM [falling, partial curve].
Regarding `COc1ccc(CCCNc2cc(C3CC(O)C3)ncn2)cc1` (configuration not stated), the CC50 was 15.3 µM [falling, partial curve].
The same measure for `O=C(NC1CCOCC1)c1ccc2c(c1)OCCN(c1cccc(OC(F)(F)F)c1)C2`: 49.8 µM [falling, single point]; for `Cc1n[nH]c(C)c1Cc1ccc(C(=O)N2CCC(CCOc3ccc(F)cc3)C2)o1` (configuration not stated): 24.3 µM [falling, partial curve]; for `COc1ccc(-c2noc(CC3CCN(C(=O)C4CCN(C(=O)c5ccccc5)CC4)CC3)n2)cc1`: 21.7 µM [falling, partial curve].
The same measure for `CC(C)c1noc(-c2cn(C3CCN(C(=O)c4ccc(N(C)C)cc4)C3)nn2)n1` (configuration not stated): 24.3 µM [falling, partial curve]; for `FC(F)(F)c1ccc(N2C3CCC2CN(Cc2cccs2)C3)cc1`: 27 µM [falling, partial curve].
The same measure for `COc1ccc(OCC(=O)N2CCC(Cc3nc(-c4ccc(F)cc4)no3)CC2)cc1`: 10.9 µM [falling, partial curve]; for `COc1cc(OC)c(NC(=O)Cn2c(N(C)Cc3ccccc3)nc(C)cc2=O)cc1Cl`: 19.3 µM [falling, partial curve]; for `COc1ccc(C(=O)N2CCC3(CC2)N=C(c2cccc(Br)c2)NO3)cc1F`: 24.3 µM [falling, single point].
With `CC(C)c1nncn1C1CCN(S(=O)(=O)c2cccc(Br)c2)CC1`, the CC50 was 30.6 µM [falling, single point].
`COc1ccc(C(=O)N2CCC(Cc3nc(-c4ccc(F)cc4)no3)CC2)c(C)c1`: the CC50 is 1.93 µM [falling, full curve].
Turning to `COc1ccc(NC(=O)Cn2c(N(C)Cc3ccccc3)nc(C)cc2=O)cc1Cl`, the CC50 is 10.9 µM [falling, partial curve].
The same measure for `CCc1ccc(C(=O)N2CCN(C(=O)c3nnn4c3COC(c3ccc(C)cc3)C4)CC2)cc1` (configuration not stated): 19.3 µM [falling, partial curve].
The same measure for `O=C(c1cccc(Cl)c1)N1CCN(C(=O)c2nnn3c2COC(c2ccc(F)cc2)C3)CC1` (configuration not stated): 21.7 µM [falling, partial curve]; for `CC1=NS(=O)(=O)N(C)C=C1C(=O)OCc1nc(-c2ccc(C(F)(F)F)cc2)no1`: 17.2 µM [falling, partial curve]; for `CC(C)c1noc(-c2cn(C3CCN(C(=O)c4ccc(Cl)s4)C3)nn2)n1` (configuration not stated): 17.2 µM [falling, partial curve].
The same measure for `CN(Cc1ccc(F)cc1)c1ccc2ncc(Nc3ccnc(N4CCOCC4)c3)n2n1`: 25 µM [falling, partial curve].
On to `Cc1nc(N2CCC(C(=O)Nc3ccc(F)c(Cl)c3)CC2)cc(C(F)(F)F)n1`, for which the CC50 is 24.3 µM [falling, partial curve].
`COc1ccc(S(=O)(=O)NC[C@H]2COCc3nc4cc(C)ccc4n32)cc1`: the CC50 was 28 µM [falling, partial curve].
The same measure for `O=C(Cc1ccc(Br)cc1)N1CCCN(c2cc(-c3ccc(F)cc3)[nH]n2)CC1`: 30.6 µM [falling, single point].
The same measure for `COc1ccc(CC(=O)N2CCC(Cc3nc(-c4ccc(F)cc4)no3)CC2)cc1`: 7.69 µM [falling, full curve].
